Measured values from paper PMC8102337 (Nature chemistry, 2021).

Biological target: the molecule itself
Experiment: SEC-MALS

Protein	stoichiometry N [monomers]
HSP27(gT184), semisynthetic HSP27 with O-GlcNAc at Thr184 (C137A) (natural protein, O-GlcNAc at Thr184) not shown	~47
HSP27, unmodified, semisynthetic (C137A) (natural protein) not shown	~28
